The values below come from ChEMBL document CHEMBL4888484, “Replenishing the malaria drug discovery pipeline: Screening and hit evaluation of the MMV Hit Generation Library 1 (HGL1) against asexual blood stage Plasmodium falciparum ,using a nano luciferase reporter read-out” (2022).

The campaign covered roughly 150,000 compounds. About 540 (0.36%) showed an effect of 50% or more. Some of the results follow.

In this experiment the test system is Plasmodium falciparum. The experiment can be described thus: Primary screen in NF54 nanoGlo assay, in single point, at 2uM, 72h; a lower Z score goes with more inhibition. To be noted: timepoint 72 hour. Format: functional, Erythrocyte.
A word on the % Inhibition: it is the drop in the measured response relative to a control, in per cent. With `CC1(C)CN(C(=O)[C@@H]2CCCc3nccn32)CCN1CCO`, the “% Inhibition” value is 2% and the Z score is -0.29.
On to `CCNC(=O)N1CC(S(=O)(=O)c2ccc(F)cc2)C1`, for which the “% Inhibition” value is given as -4% and the Z score turned out to be 0.8.
The like results for `CC(C)Oc1ccccc1CN1C[C@H](COc2cccnc2)C2(CCOCC2)C1` were, in that order, -9% and 1.18.
As for `CCN(c1ccsc1C(=O)NCc1ccccc1Cl)S(=O)(=O)c1ccccc1`, the “% Inhibition” value is given as -2% and the Z score came out at 0.25.
On the same counts, the results for `Cc1noc(C)c1CCC(=O)N1CC(Oc2ccccc2Cl)C1` are -7% and 1.34.
As for `Cc1nc([C@@H](O)Cc2ccccc2)n(-c2ncccc2C)n1`, the “% Inhibition” value is given as -13% and the Z score came to 1.82.
On the same counts, the results for `CCC1(CNC(=O)NCCCN2CCCC2=O)CCCC1` are 0% and 0.04.
Take `O=C1c2ccccc2N[C@H](c2ccccc2Br)N1CCCN1CCOCC1`: the “% Inhibition” value is on record as -13% and the Z score is 2.4.
The like results for `CCS(=O)(=O)N[C@H]1COCC[C@@H]1Oc1ccccn1` were, in that order, -1% and 0.3.
The like results for `Cc1c(NC(=O)N2CCC[C@H](n3nccc3C(F)(F)F)C2)c(=O)n(-c2ccccc2)n1C` were, in that order, -6% and 0.97.
Turning to `CCCc1noc(-c2ccc(-c3ccc(CC)cc3)cc2)n1`, the “% Inhibition” value is recorded as -11% and the Z score is reported as 2.13.
The like results for `O=C(c1ccc(-n2cccn2)nc1)N1CCN(c2cccc(Cl)c2)CC1` were, in that order, -14% and 1.66.
`CCc1csc(CCNC(=O)C2(COC)CCC2)n1`: the “% Inhibition” value is given as -5% and the Z score amounted to 0.79.
On the same counts, the results for `O=C(c1cccc(S(=O)(=O)NC[C@H](O)CO)c1)N1CCC2(CCCC2)C1` are -19% and 1.84.
The like results for `Cc1cccc(CC(=O)Nc2cnn(-c3cccc(C(=O)NCc4ccc5nonc5c4)c3)c2)c1` were, in that order, -4% and 0.49.
The like results for `CCC(C)N1C(=O)CCC1C(=O)N1CCN(c2ccc(F)cc2)CC1` (stereo not given) were, in that order, -12% and 2.1.
Turning to `CCC[C@@H]1NC(=O)c2ccc(OC)c(c2)OCCCn2cc(nn2)CNC(=O)[C@@H](Cc2ccccc2)NC1=O`, the “% Inhibition” value is reported as -1% and the Z score stood at 0.27.
The like results for `CC(NC(=O)CNC(=O)c1cccs1)C(O)c1ccc(F)cc1` (stereo not given) were, in that order, -16% and 1.82.
On the same counts, the results for `c1cc(-c2ccc(N3CCNCC3)nn2)ccn1` are 5% and -1.03.
Consider `CC(C)CC(=O)Nc1ccc(N2CCCN(C(=O)NC(C)C)CC2)c(C(=O)N(C)Cc2ccccc2)c1`, for which the “% Inhibition” value was -5% and the Z score was determined as 0.66.
The like results for `COc1cccc(-c2nc3ccc(-c4cc(C)ccc4C)cn3c2CN2CCN(C(=O)C3CCCC3)CC2)c1` were, in that order, -33% and 2.94.
On the same counts, the results for `CN(Cc1cnn(C)c1)C(=O)c1cnn(-c2ccc(Cl)cc2Cl)c1C1CC1` are -4% and 0.66.
Take `O=C(CN1CCCCC1=O)N[C@H]1CCCN(C2CCCCCC2)C1`: the “% Inhibition” value was -7% and the Z score was 1.33.
The like results for `CNc1cc(C(N)=O)c(Cl)cc1Cl` were, in that order, -15% and 1.52.
On to `O=C1C[C@@H]2O[C@H](CN(Cc3ccc(F)c(F)c3)C[C@@H]3CN(CCO3)C(=O)[C@@H]3C[C@@H](CN3Cc3ccc4c(c3)OCO4)N1)[C@@H](O)[C@H]2O`, for which the “% Inhibition” value is listed as -7% and the Z score is recorded as 1.05.
On the same counts, the results for `CN1Cc2ccccc2C[C@H]1C(=O)N(Cc1ccccn1)C1CCCCC1` are 9% and -1.22.
For the molecule `COC1CCCC(CC(=O)NC2CC(=O)N(C)C2)C1` (stereo not given), the “% Inhibition” value was determined as 2% and the Z score is reported as -0.4.
The like results for `O=C(Nc1ccc2c(c1)COC2=O)c1ccc(Cl)c(Cl)c1` were, in that order, 5% and -0.59.
Turning to `O=C(Nc1nc(=O)[nH]s1)c1ccccc1`, the “% Inhibition” value is reported as 1% and the Z score is recorded as -0.18.
The like results for `COc1ccc(S(=O)(=O)NC[C@H]2Cc3ccccc3O2)cc1` were, in that order, 2% and -0.32.
Take `O=C(Nc1cc(C(F)(F)F)cc2nsnc12)c1sc2ccccc2c1Cl`: the “% Inhibition” value was found to be 8% and the Z score is on record as -1.11.
On the same counts, the results for `CCN(C(=O)NCCc1ccc(C)nc1)[C@@H](C)CS(C)(=O)=O` are -6% and 0.83.
On the same counts, the results for `O=C(NCC1(O)CCC1)Nc1nccs1` are -3% and 0.29.
On the same counts, the results for `Cc1cc(C)cc(N(C(=O)[C@H]2CCS(=O)(=O)C2)c2nc(-c3ccc(F)cc3)cs2)c1` are -13% and 1.17.
With `O=C(NCCn1cccn1)N[C@@H](C1CCCC1)C(F)(F)F`, the “% Inhibition” value is on record as -3% and the Z score is 0.35.
The like results for `CNc1nc(N2CC(c3ccncc3)C2)nc2c1CCC2` were, in that order, -13% and 1.67.
On the same counts, the results for `Cc1cccn2cc(COc3ccccc3C(=O)NCC3CCN(CCO)CC3)nc12` are 4% and -0.37.
The like results for `COC(=O)c1ncn2c1C(=O)N(Cc1cccc(C)c1)[C@](C)(C(=O)NC1CCCCCC1)C2` were, in that order, -6% and 0.79.
Consider `O=C(Cn1cnc2ccccc2c1=O)N1CC(c2nc(-c3ccccn3)no2)C1`, for which the “% Inhibition” value was -9% and the Z score turned out to be 1.24.
As to `O=C([C@@H]1C[C@@H]2OCC[C@@H]2N1C(=O)c1cccc2cnccc12)N1CCCC1`, the “% Inhibition” value worked out at 5% and the Z score was -0.77.
